Test results taken from PubChem BioAssay AID493169 (National Center for Advancing Translational Sciences (NCATS), 2011).
This list was built around the results that the source calls inconclusive (neither active nor inactive); the mix of calls is not that of the screen. A potency beside an inconclusive call is a rough fit, not a confirmed value. The source made the active and inactive calls. Calls follow the shape of the dose curve; as a rule, active = well fitted inhibition curve with a large enough effect; inconclusive = small, poorly fitted or top-dose-only effect; inactive = flat fitted curve, though single readings scatter.

Assay: CHOP2 Reporter Counterscreen Assay for Inhibitors of Ubiquitin-specific Protease USP2a;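 also: activated enterokinase alone at 50 pM in a cell-free format rather than USP2a or CHOP2; nearly all actives have a fitted effect of over 55% in size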
Conditions: purified enterokinase, fluorogenic substrate, 485/531 nm; series mostly up to 38.3 µM; activity change, negative = inhibition: at the top concentration
Summary of the method: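 Fluorescence (485/531 nm) read 10 min after adding 25nM reporter substrate to 50 pM activated EK preincubated 30 min RT with compound; Tris pH 8.0/CaCl2/CHAPS buffer. Data normalized to buffer-alone inhibition; concentration-response curves fitted.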
% is scaled to controls: 0 for no effect and ±100 for the full control effect; potency is read from the fitted curve at half-maximal effect; tags tell the direction and shape of the fitted curve.

Compound | activity change, negative = inhibition | Potency
Cn1nnnc1Sc1ncnc2scc(-c3ccc4c(c3)OCO4)c12 | inactive: -2.6% | 
N#C/C(=C(/O)CSc1nnc(Cc2cccs2)n1C1CCCCC1)c1nc2ccccc2[nH]1 |  | inconclusive: 12.6 µM [inhibitor, partial curve, poor fit]
O=C(/C=C1\NC2(CCCC2)Cc2ccccc21)C(=O)N/N=C/c1ccc(O)c(O)c1 |  | active: 4.47 µM
COc1cccc(-n2c(SCc3cc(=O)oc4cc(O)c(O)cc34)nc3ccccc3c2=O)c1 |  | inconclusive: 1.12 µM [inhibitor, full curve, poor fit]
CC(C(=O)Nc1ccc(C(=O)O)c(O)c1)N1C(=O)/C(=C\c2ccco2)SC1=S (stereo not drawn) |  | active: 7.94 µM
O=C(CSc1ccc(Br)c2cccc(Cl)c12)Nc1ccc(S(=O)(=O)Nc2nccs2)cc1 |  | active: 11.2 µM
O=C(Nc1ccc(Oc2ccc(Cl)cc2)cc1)c1ncn[nH]1 | inactive: 4.42% | 
NS(=O)(=O)c1cc(C(=O)NC2CCSc3ccccc32)ccc1Cl (stereo not drawn) |  | active: 10 µM
O=C(/C=C\c1ccco1)c1ccc(NC(=O)c2ccco2)cc1 |  | inconclusive: 8.91 µM [inhibitor, partial curve, poor fit]
CN=c1scc(-c2ccccc2F)n1/N=C/c1ccc(O)c(O)c1O |  | active: 10 µM
CCN=C1SC(C(=O)Nc2cccc(OCC)c2)CC(=O)N1CC (stereo not drawn) | inactive: 0.255% | 
Cc1c2c(=O)n(-c3nc4ccccc4s3)nc-2cc(O)n1Cc1ccccc1 |  | active: 11.2 µM
CCCCCCCCCCCCCCCC[n+]1cccc(C(=O)N(CC)CC)c1 |  | inconclusive: 7.08 µM [inhibitor, partial curve, poor fit]
CC(=O)NS(=O)(=O)c1ccc(NC(=O)c2cc(-c3ccc(C)c(C)c3)nc3ccccc23)cc1 |  | inconclusive: 28.2 µM [inhibitor, single point]
Cc1cc(C)cc(C(=O)Nc2ccc(N3CCCC3)cc2)c1 |  | inconclusive: 28.2 µM [inhibitor, single point]
CCOC(=O)CCCNC(=O)COC(=O)c1cccc(C)c1O | inactive: 5.39% | 
O=C(Cn1nc(-c2cccs2)ccc1=O)Nc1ccc(Br)cc1 |  | inconclusive: 5.01 µM [inhibitor, single point]
O=C(Cc1ccccc1)Nc1cccc(N2CCCC2)c1 |  | inconclusive: 22.4 µM [inhibitor, single point]
CCc1ccc([C@@H]2CC=C(C(=O)O)[C@H](c3ccc(C(C)(C)C)cc3)N2S(=O)(=O)c2ccc(C)cc2)cc1 |  | inconclusive: 28.2 µM [inhibitor, single point]
N=C1/C(=C\c2ccc(-c3cccc(Cl)c3)o2)C(=O)N=C2SC=C(c3ccccc3)N12 | inactive: -29.9% | 
Cc1ccc(C(=O)O/N=C/c2c(C(F)(F)F)nn(C)c2Sc2ccc(Cl)cc2)cc1 | inactive: -0.861% | 
CN(CC(=O)Nc1cccc2ccccc12)C(=O)c1ccc(NC(=O)CC#N)cc1 |  | inconclusive: 12.6 µM [inhibitor, partial curve, poor fit]
Cc1ccc(S(=O)(=O)N2[C@@H](c3ccc(Cl)cc3)C(C(=O)O)=CC[C@H]2c2ccc(C(C)C)cc2)cc1 |  | inconclusive: 12.6 µM [inhibitor, partial curve, poor fit]
